# Laboratory results taken from PMC5700166.
# This is a selection; strong and weak results do not stand in their true shares. The list includes weakly bound sequences.
# Tests used:
# Assay in all cases: protein-binding microarray (PBM)
# Settings in all cases: PBM: ~300 nM protein, 6 mM HEPES pH 7.8, 80 mM KCl, 0.5 mM EDTA, 0.5 mM EGTA, 6% glycerol, 35 ng/ul poly-dIdC, 1% milk, 1 h, room temperature; Ap Aiptasia and Nv Nematostella (sea anemones) / Co Capsaspora / Aq Amphimedon (sponge) / Dm Drosophila / Hu human; RHD is the Rel homology domain; high values mean tight binding; most listed sequences are background and not binding sites; double strand, one strand shown
# GST-Ap-NF-kB RHD = biological target: T1, GST-Ap-NF-kB RHD (UniProt A0A913YAJ5)
# T1 sequence: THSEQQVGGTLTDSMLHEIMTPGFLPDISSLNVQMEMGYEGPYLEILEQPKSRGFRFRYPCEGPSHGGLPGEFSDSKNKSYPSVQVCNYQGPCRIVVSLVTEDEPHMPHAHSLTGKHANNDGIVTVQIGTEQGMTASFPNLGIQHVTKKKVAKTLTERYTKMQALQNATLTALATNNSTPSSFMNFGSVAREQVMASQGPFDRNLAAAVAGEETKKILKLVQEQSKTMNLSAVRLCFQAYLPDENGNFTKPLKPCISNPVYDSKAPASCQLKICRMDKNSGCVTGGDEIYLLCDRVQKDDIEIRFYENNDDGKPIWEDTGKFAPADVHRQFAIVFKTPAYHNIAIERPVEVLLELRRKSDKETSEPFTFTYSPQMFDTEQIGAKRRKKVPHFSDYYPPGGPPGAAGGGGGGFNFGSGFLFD
# [1] = biological target: T2, GST-Nv-NF-kB (Cys allele) (UniProt E5G601)
# T2 sequence: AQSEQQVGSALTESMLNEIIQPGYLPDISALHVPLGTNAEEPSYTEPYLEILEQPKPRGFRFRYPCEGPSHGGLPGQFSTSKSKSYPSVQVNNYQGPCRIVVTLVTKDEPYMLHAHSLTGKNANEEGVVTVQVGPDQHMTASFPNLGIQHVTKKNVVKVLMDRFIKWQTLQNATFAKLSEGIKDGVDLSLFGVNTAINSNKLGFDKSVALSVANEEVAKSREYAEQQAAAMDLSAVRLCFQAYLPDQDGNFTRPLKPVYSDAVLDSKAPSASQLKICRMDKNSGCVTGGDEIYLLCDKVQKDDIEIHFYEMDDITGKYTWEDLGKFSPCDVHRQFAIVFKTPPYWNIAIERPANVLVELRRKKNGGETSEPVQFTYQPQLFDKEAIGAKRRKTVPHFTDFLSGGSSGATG
# GST-Co-NF-kB = biological target: T3, GST-Co-NF-kB (UniProt F1ARL5)
# T3 sequence: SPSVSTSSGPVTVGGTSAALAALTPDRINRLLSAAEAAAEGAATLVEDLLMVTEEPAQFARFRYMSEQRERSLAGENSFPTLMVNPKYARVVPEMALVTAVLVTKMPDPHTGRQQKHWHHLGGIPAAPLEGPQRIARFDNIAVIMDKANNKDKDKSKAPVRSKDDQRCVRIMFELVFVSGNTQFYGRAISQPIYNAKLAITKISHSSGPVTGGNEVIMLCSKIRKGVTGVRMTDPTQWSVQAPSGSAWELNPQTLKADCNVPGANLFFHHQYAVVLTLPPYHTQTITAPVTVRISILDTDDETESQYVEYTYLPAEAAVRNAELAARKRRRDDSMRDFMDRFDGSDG
# GST-Dm-Relish = biological target: T4, GST-Dm-Relish (UniProt Q94527)
# T4 sequence: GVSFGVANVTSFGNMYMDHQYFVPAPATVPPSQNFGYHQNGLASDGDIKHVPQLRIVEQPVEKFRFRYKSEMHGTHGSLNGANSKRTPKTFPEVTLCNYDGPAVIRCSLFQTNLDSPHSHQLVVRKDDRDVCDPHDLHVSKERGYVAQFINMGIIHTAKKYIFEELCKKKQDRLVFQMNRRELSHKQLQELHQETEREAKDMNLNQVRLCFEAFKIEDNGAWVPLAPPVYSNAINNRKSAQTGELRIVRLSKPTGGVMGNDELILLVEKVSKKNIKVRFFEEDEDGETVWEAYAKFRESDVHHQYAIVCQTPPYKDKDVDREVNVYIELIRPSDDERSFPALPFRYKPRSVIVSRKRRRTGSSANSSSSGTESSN
# GST-Aq-NF-kB = biological target: T5, GST-Aq-NF-kB (UniProt A9Y5G7)
# T5 sequence: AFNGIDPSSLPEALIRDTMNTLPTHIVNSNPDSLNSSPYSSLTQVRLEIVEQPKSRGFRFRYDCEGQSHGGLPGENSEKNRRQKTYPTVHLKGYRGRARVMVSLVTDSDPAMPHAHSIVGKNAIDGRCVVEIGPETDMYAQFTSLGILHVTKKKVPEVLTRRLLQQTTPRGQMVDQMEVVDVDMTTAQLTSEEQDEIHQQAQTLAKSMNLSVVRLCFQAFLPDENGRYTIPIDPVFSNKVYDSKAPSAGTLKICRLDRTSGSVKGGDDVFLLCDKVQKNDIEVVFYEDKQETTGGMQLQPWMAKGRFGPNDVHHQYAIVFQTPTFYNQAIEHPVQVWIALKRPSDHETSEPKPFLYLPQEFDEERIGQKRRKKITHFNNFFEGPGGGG
Sequence,binding signal (GST-Ap-NF-kB RHD) [z-score],binding signal [1] [z-score],binding signal (GST-Co-NF-kB) [z-score],binding signal (GST-Dm-Relish) [z-score],binding signal (GST-Aq-NF-kB) [z-score]
CCGATTAACATCAGTTGTCCATCTGATGTTAATCGGGTCTTGATTCGCTTGACGCTGCTG,-0.279,-0.482,-0.45,-0.654,-0.41
CCGATTAACATCAGACTTGAGTATGATGTTAATCGGGTCTTGATTCGCTTGACGCTGCTG,-0.656,-0.588,-0.175,-1.51,-0.704
CCGATTAACATCAGTGATTAAGGTGATGTTAATCGGGTCTTGATTCGCTTGACGCTGCTG,-0.31,0.429,0.552,0.152,0.274
CCGATTAACATCAGGAGTGCCCATGATGTTAATCGGGTCTTGATTCGCTTGACGCTGCTG,0.388,-0.127,0.284,-0.263,0.0806
CCGATTAACATCATTGATGGAACTGATGTTAATCGGGTCTTGATTCGCTTGACGCTGCTG,-0.0588,-0.299,-0.945,-0.65,-0.0548
CCGATTAACATCATCAGTGGGCCTGATGTTAATCGGGTCTTGATTCGCTTGACGCTGCTG,0.213,-0.499,-0.89,-0.45,0.151
CCGATTAACATCAACCAGTAGACTGATGTTAATCGGGTCTTGATTCGCTTGACGCTGCTG,-0.559,-0.642,-0.294,-0.34,-0.326
CCGATTAACATCAGGAAATACTATGATGTTAATCGGGTCTTGATTCGCTTGACGCTGCTG,0.29,-0.104,0.595,0.289,0.341
CCGATTAACATCAAAGAGTCCTATGATGTTAATCGGGTCTTGATTCGCTTGACGCTGCTG,-0.39,-0.599,-0.219,-0.626,0.039
CCGATTAACATCAACAAGCCCACTGATGTTAATCGGGTCTTGATTCGCTTGACGCTGCTG,0.00956,0.189,0.0983,0.223,-0.0918
CCGATTAACATCAAGGAATTGCCTGATGTTAATCGGGTCTTGATTCGCTTGACGCTGCTG,-0.0689,-0.502,0.116,0.978,0.917
CCGATTAACATCAGCAAATTTCCTGATGTTAATCGGGTCTTGATTCGCTTGACGCTGCTG,-0.062,-0.11,0.215,0.763,0.725
CCGATTAACATCAAGAGAGTTGCTGATGTTAATCGGGTCTTGATTCGCTTGACGCTGCTG,-0.059,-0.42,0.0232,0.131,-0.389
CCGATTAACATCAGCAGTCTCCGTGATGTTAATCGGGTCTTGATTCGCTTGACGCTGCTG,-0.137,-0.137,-0.28,-0.308,-0.529
CCGATTAACATCAATAAGTTCCTTGATGTTAATCGGGTCTTGATTCGCTTGACGCTGCTG,-0.555,-0.136,0.152,0.0693,-0.181
CCGATTAACATCAGCAATAGGCTTGATGTTAATCGGGTCTTGATTCGCTTGACGCTGCTG,-0.383,-0.0284,-0.195,-0.282,-0.649
CCGATTAACATCAGGAATTCTACTGATGTTAATCGGGTCTTGATTCGCTTGACGCTGCTG,-0.928,-0.666,-0.464,0.594,-0.0775
CCGATTAACATCACGTAACTTGATGATGTTAATCGGGTCTTGATTCGCTTGACGCTGCTG,-0.695,-0.61,-0.43,-0.0427,-0.208
CCGATTAACATCAACGTTCCGCCTGATGTTAATCGGGTCTTGATTCGCTTGACGCTGCTG,-0.451,-0.183,-0.871,0.113,-0.236
CCGATTAACATCAGAATTTTTCCTGATGTTAATCGGGTCTTGATTCGCTTGACGCTGCTG,-0.428,0.19,0.617,0.691,0.549
CCGATTAACATCACACATTTCACTGATGTTAATCGGGTCTTGATTCGCTTGACGCTGCTG,-0.0236,0.00124,0.473,0.267,-0.165
CCGATTAACATCAGGCATTTCCATGATGTTAATCGGGTCTTGATTCGCTTGACGCTGCTG,0.349,-0.348,-0.265,0.053,1.13
CCGATTAACATCACGTGCTAGCCTGATGTTAATCGGGTCTTGATTCGCTTGACGCTGCTG,-0.329,-0.378,-1.35,-0.835,-0.455
CCGATTAACATCAATGGATTTCCTGATGTTAATCGGGTCTTGATTCGCTTGACGCTGCTG,-0.733,-0.542,-0.0464,1.12,0.4
CCGATTAACATCATTTTTTTAAGTGATGTTAATCGGGTCTTGATTCGCTTGACGCTGCTG,-0.799,0.0409,-0.182,0.366,-0.411
